# Measurements reported in the supplement of paper PMC11246515.
# ± gives the standard deviation of the averaged measurements.
# Assay: total protein half-life in vivo (active degradation + dilution); higher = more stable protein
# [1] = E. coli NCM3722 delta-clpP delta-lon delta-hslV, growth: N-lim chemostat, doubling time 6 h
# [2] = E. coli NCM3722 delta-clpP, growth: N-lim chemostat, doubling time 6 h
# [3] = E. coli NCM3722 delta-hslV, growth: N-lim chemostat, doubling time 6 h
# [4] = E. coli NCM3722 delta-lon, growth: N-lim chemostat, doubling time 6 h
# [5] = E. coli NCM3722 delta-smpB, growth: N-lim chemostat, doubling time 6 h
# [6] = wild type E. coli NCM3722, growth: C-lim chemostat, doubling time 3 h
# [7] = wild type E. coli NCM3722, growth: C-lim chemostat, doubling time 6 h
# [8] = wild type E. coli NCM3722, growth: C-lim chemostat, doubling time 12 h
# [9] = wild type E. coli NCM3722, growth: N-lim chemostat, doubling time 6 h
# [10] = wild type E. coli NCM3722, growth: N-lim chemostat, doubling time 12 h
# [11] = wild type E. coli NCM3722, growth: P-lim chemostat, doubling time 6 h
# [12] = wild type E. coli NCM3722, growth: P-lim chemostat, doubling time 12 h
Sequence,total protein half-life in vivo [1] [h],total protein half-life in vivo [2] [h],total protein half-life in vivo [3] [h],total protein half-life in vivo [4] [h],total protein half-life in vivo [5] [h],total protein half-life in vivo [6] [h],total protein half-life in vivo [7] [h],total protein half-life in vivo [8] [h],total protein half-life in vivo [9] [h],total protein half-life in vivo [10] [h],total protein half-life in vivo [11] [h],total protein half-life in vivo [12] [h]
MAGAKEIRSKIASVQNTQKITKAMEMVAASKMRKSQDRMAASRPYAETMRKVIGHLAHGNLEYKHPYLEDRDVKRVGYLVVSTDRGLCGGLNINLFKKLLAEMKTWTDKGVQCDLAMIGSKGVSFFNSVGGNVVAQVTGMGDNPSLSELIGPVKVMLQAYDEGRLDKLYIVSNKFINTMSQVPTISQLLPLPASDDDDLKHKSWDYLYEPDPKALLDTLLRRYVESQVYQGVVENLASEQAARMVAMKAATDNGGSLIKELQLVYNKARQASITQELTEIVSGAAAV [P0ABA6],5.94 ± 0.68,5.84 ± 0.6,4.97 ± 0.71,5.848 ± 0.015,5.44 ± 0.29,3.01 ± 0.1,6.44 ± 0.32,12.45 ± 0.032,5.597 ± 0.055,10.1 ± 0.32,5.78 ± 0.32,14 ± 0.81
MNLNATILGQAIAFVLFVLFCMKYVWPPLMAAIEKRQKEIADGLASAERAHKDLDLAKASATDQLKKAKAEAQVIIEQANKRRSQILDEAKAEAEQERTKIVAQAQAEIEAERKRAREELRKQVAILAVAGAEKIIERSVDEAANSDIVDKLVAEL [P0ABA0],6.24 ± 0.12,5.79 ± 0.46,6.27 ± 0.64,5.65 ± 0.39,5.74 ± 0.37,3.166 ± 0.014,6.38 ± 0.38,12.4 ± 0.82,5.98 ± 0.4,13.6 ± 1.9,5.58 ± 0.5,13.3 ± 0.97
MAMTYHLDVVSAEQQMFSGLVEKIQVTGSEGELGIYPGHAPLLTAIKPGMIRIVKQHGHEEFIYLSGGILEVQPGNVTVLADTAIRGQDLDEARAMEAKRKAEEHISSSHGDVDYAQASAELAKAIAQLRVIELTKKAM [P0A6E6],6.51 ± 0.31,,6.58,5.87 ± 0.14,,3.26 ± 0.11,6.35 ± 0.12,11.2 ± 0.58,5.65 ± 0.88,11.8,5.73 ± 0.28,14.3
MAYSEKVIDHYENPRNVGSFDNNDENVGSGMVGAPACGDVMKLQIKVNDEGIIEDARFKTYGCGSAIASSSLVTEWVKGKSLDEAQAIKNTDIAEELELPPVKIHCSILAEDAIKAAIADYKSKREAK [P0ACD4],3.32 ± 0.41,1.56 ± 0.094,1.3 ± 0.2,1.88 ± 0.23,1.18 ± 0.15,1.9 ± 0.07,1.93 ± 0.1,2.3 ± 0.32,1.31 ± 0.12,1.58 ± 0.021,2.09 ± 0.13,3.62 ± 0.89
MAVTNVAELNALVERVKKAQREYASFTQEQVDKIFRAAALAAADARIPLAKMAVAESGMGIVEDKVIKNHFASEYIYNAYKDEKTCGVLSEDDTFGTITIAEPIGIICGIVPTTNPTSTAIFKSLISLKTRNAIIFSPHPRAKDATNKAADIVLQAAIAAGAPKDLIGWIDQPSVELSNALMHHPDINLILATGGPGMVKAAYSSGKPAIGVGAGNTPVVIDETADIKRAVASVLMSKTFDNGVICASEQSVVVVDSVYDAVRERFATHGGYLLQGKELKAVQDVILKNGALNAAIVGQPAYKIAELAGFSVPENTKILIGEVTVVDESEPFAHEKLSPTLAMYRAKDFEDAVEKAEKLVAMGGIGHTSCLYTDQDNQPARVSYFGQKMKTARILINTPASQGGIGDLYNFKLAPSLTLGCGSWGGNSISENVGPKHLINKKTVAKRAENMLWHKLPKSIYFRRGSLPIALDEVITDGHKRALIVTDRFLFNNGYADQITSVLKAAGVETEVFFEVEADPTLSIVRKGAELANSFKPDVIIALGGGSPMDAAKIMWVMYEHPETHFEELALRFMDIRKRIYKFPKMGVKAKMIAVTTTSGTGSEVTPFAVVTDDATGQKYPLADYALTPDMAIVDANLVMDMPKSLCAFGGLDAVTHAMEAYVSVLASEFSDGQALQALKLLKEYLPASYHEGSKNPVARERVHSAATIAGIAFANAFLGVCHSMAHKLGSQFHIPHGLANALLICNVIRYNANDNPTKQTAFSQYDRPQARRRYAEIADHLGLSAPGDRTAAKIEKLLAWLETLKAELGIPKSIREAGVQEADFLANVDKLSEDAFDDQCTGANPRYPLISELKQILLDTYYGRDYVEGETAAKKEAAPAKAEKKAKKSA [P0A9Q7],6.83 ± 0.95,6.56 ± 0.49,4.441 ± 0.029,4.35 ± 0.058,4.4 ± 0.076,2.86 ± 0.041,5.17 ± 0.29,9.32 ± 0.61,4.284 ± 0.013,6.99 ± 0.12,4.3 ± 0.15,8.13 ± 0.7
MKLPIYLDYSATTPVDPRVAEKMMQFMTMDGTFGNPASRSHRFGWQAEEAVDIARNQIADLVGADPREIVFTSGATESDNLAIKGAANFYQKKGKHIITSKTEHKAVLDTCRQLEREGFEVTYLAPQRNGIIDLKELEAAMRDDTILVSIMHVNNEIGVVQDIAAIGEMCRARGIIYHVDATQSVGKLPIDLSQLKVDLMSFSGHKIYGPKGIGALYVRRKPRVRIEAQMHGGGHERGMRSGTLPVHQIVGMGEAYRIAKEEMATEMERLRGLRNRLWNGIKDIEEVYLNGDLEHGAPNILNVSFNYVEGESLIMALKDLAVSSGSACTSASLEPSYVLRALGLNDELAHSSIRFSLGRFTTEEEIDYTIELVRKSIGRLRDLSPLWEMYKQGVDLNSIEWAHH [P0A6B7],3.67 ± 0.65,2.88 ± 0.19,1.54 ± 0.033,2.45 ± 0.23,1.74 ± 0.034,2.23 ± 0.071,2.78 ± 0.22,3.83 ± 0.34,1.71 ± 0.12,2.23 ± 0.24,2.58 ± 0.12,4.64 ± 0.52
MSEFITVARPYAKAAFDFAVEHQSVERWQDMLAFAAEVTKNEQMAELLSGALAPETLAESFIAVCGEQLDENGQNLIRVMAENGRLNALPDVLEQFIHLRAVSEATAEVDVISAAALSEQQLAKISAAMEKRLSRKVKLNCKIDKSVMAGVIIRAGDMVIDGSVRGRLERLADVLQS [P0ABA4],6.67 ± 0.17,6.73 ± 1.6,5.48 ± 0.18,5.7 ± 0.4,5.425 ± 0.021,3.13 ± 0.098,6.19 ± 0.15,12.5 ± 0.23,5.65 ± 0.2,10.7 ± 1.3,5.81 ± 0.1,12.68 ± 0.059
